Reference: article PMC4336329 (PLoS ONE, 2015)
Among all 310,000 compounds or so, about 2,200 (0.71%) showed an effect of 50% or more. The effect is printed as a negative number. The list shows a part of the results.

target: human ether-à-go-go-related gene (hERG) potassium channel (human, UniProt Q12809); test: primary screen, population patch clamp on CHO cells stably expressing hERG
Sequence (Q12809 whole entry, looked up): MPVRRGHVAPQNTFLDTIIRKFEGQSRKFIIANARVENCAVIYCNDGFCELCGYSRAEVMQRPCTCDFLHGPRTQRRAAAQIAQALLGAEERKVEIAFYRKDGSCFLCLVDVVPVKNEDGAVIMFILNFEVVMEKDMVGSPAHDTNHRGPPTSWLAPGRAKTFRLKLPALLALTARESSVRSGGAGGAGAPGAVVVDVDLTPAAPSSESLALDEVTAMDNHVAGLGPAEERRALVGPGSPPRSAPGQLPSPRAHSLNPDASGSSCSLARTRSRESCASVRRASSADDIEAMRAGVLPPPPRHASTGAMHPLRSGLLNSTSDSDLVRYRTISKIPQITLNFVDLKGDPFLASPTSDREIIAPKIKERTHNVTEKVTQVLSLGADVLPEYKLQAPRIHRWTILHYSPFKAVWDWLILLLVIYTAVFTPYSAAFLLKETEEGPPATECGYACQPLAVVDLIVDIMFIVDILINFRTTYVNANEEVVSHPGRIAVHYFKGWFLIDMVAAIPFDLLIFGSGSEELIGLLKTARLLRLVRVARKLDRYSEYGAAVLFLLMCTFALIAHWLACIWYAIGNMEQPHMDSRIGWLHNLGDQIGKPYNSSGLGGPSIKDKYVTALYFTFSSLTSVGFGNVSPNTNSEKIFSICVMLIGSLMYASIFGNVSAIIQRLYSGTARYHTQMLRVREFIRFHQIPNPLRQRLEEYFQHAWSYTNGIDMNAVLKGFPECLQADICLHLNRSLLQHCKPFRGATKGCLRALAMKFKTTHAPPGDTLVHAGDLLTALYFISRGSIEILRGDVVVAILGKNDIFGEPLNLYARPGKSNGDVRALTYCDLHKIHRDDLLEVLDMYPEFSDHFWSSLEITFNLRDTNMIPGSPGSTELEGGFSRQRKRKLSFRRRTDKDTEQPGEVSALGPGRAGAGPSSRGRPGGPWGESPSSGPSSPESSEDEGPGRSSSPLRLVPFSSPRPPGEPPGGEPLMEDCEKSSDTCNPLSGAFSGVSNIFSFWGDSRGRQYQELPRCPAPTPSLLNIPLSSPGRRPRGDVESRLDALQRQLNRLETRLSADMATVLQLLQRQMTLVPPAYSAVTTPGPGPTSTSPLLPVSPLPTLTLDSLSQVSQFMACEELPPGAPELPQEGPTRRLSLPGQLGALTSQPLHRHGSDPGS

| SMILES | hERG current change (%, negative = inhibition) at 1uM |
| --- | --- |
| COC(=O)c1nc2nc(C)cc(C(F)(F)F)n2n1 | 9.06% |
| COc1ccc(CCNS(=O)(=O)c2cc3c(cc2C)NC(=O)CO3)cc1OC | 12.4% |
| O=C(NCc1cccnc1)NC1CC(=O)N(c2ccc3c(c2)OCCO3)C1 (stereo not drawn) | 12.8% |
| COc1ccccc1N1CCN(C(=O)c2cc(-c3ccccc3)on2)CC1 | 16.1% |
| CCOC(=O)c1ccc(N)cc1 | 16.1% |
| COc1cccc(C(=O)NCC2(c3ccccc3)CCCC2)c1 | 0.524% |
| CCN(CC)CC.CCOc1ccccc1-n1c(=S)sc2c(=O)n(-c3ccc(C)cc3)c(=S)[nH]c21 | 15.9% |
| COc1cc(C(=O)OCCN2CCOCC2)ccc1O | 4.59% |
| COCC(=O)OCC(=O)Nc1cc(C(C)(C)C)nn1-c1ccccc1 | 13.6% |
| COc1ccccc1NC(=O)CN1CCN(c2ccc(Cl)cc2)CC1 | -3.43% |
| COCCOC(=O)c1c(NC(=O)CNCc2ccco2)sc(C(N)=O)c1C | 5.76% |
| Cc1cc(=O)n2c(nc3ccccc32)[nH]1 | 3.11% |
| CC(NC(=O)Cc1ccsc1)c1ccc(F)cc1 (stereo not drawn) | 12.8% |
| O=C(NCC1CCN(c2ccc(S(=O)(=O)N3CCOCC3)cc2)CC1)Nc1ccccc1 | 17.9% |
| COc1ccc(Cl)cc1NS(=O)(=O)c1c(C)[nH]c(C)c1C(=O)N1CCCCC1 | 9.72% |
| C=CCNC(=S)NNc1ncnc2sc3c(c12)CC(C)(C)OC3 | 2.71% |
| COc1ccccc1OCC(=O)N/N=C/c1c(O)ccc2ccccc12 | 8.41% |
| O=C(NN=C1CCN(Cc2ccccc2)CC1)c1ccccc1 | 7.93% |
| Cc1ccc(OCC(=O)N2CCc3ccccc3C2)c(Br)c1 | 13.6% |

| SMILES | hERG current change (%, negative = inhibition) at 1uM |
| --- | --- |
| CC(C)(C)NC(=O)CSc1nnc(Cc2ccc3c(c2)OCO3)n1C1CCCCC1 | 13% |
| CCC(C)Sc1cc(-c2nc3ccccn3c2NC2CCCCC2)ccc1OC.O=C(O)C(F)(F)F (stereo not drawn) | 5.67% |
| CSCCC(NC(N)=O)C(=O)Nc1ccc2ccccc2c1 (stereo not drawn) | 18.9% |
| OC(COC1CCCCC1)CN1CCN(c2ccccc2)CC1 (stereo not drawn) | -3.58% |
| COc1cccc(NC(=O)c2csc3c2CCCC3)c1 | 23.4% |
| COc1cc(C(=O)NCc2cn3ccccc3n2)cc(OC)c1OC | 8.31% |
| O=C(N=C1SC2CS(=O)(=O)CC2N1c1cc(Cl)ccc1Cl)C1CCCO1 (stereo not drawn) | -0.486% |
| CCOC(=O)CSc1nnc(Cc2ccccc2)n1CC1CCCO1 (stereo not drawn) | 4.04% |
| COC(=O)Cc1c(O)ccn(Cc2cccc3ccccc23)c1=O | 7.7% |
| C=CCNC(=O)C(=O)c1cccn1-c1ccsc1C(=O)OC | 9.95% |
| COC(=O)CSc1nc(NC(C)C)nc(N(C)C)n1 | 7.13% |
| COc1cc(/C=N/Nc2nc3ccccc3[nH]2)cc(OC)c1O | -8.16% |
| O=C(Nc1cc2c3c(c1)CC(=O)N3CCC2)C1CC1 | 9.06% |
| CCOC(=O)C1C(=O)CC(C)(O)C(C(=O)OCC)C1c1ccc([N+](=O)[O-])cc1 (stereo not drawn) | 0.692% |
| CCN(CC)C(=O)C1CCN(CC2CC=CCC2)CC1 (stereo not drawn) | 5.06% |
| O=C(NCCc1ccc(F)cc1)c1ccc2c(=O)n3c(nc2c1)CCC3 | -10.9% |
| COc1ccc2oc(C(=O)Nc3nc4ccc(S(C)(=O)=O)cc4s3)c(C)c2c1 | 15.9% |
| CCNc1nc(NCC)n2c(SCC(=O)Nc3ccc(OC)c(OC)c3)nnc2n1 | 12.9% |
| c1cc(CNCC2CCCO2)ccn1 (stereo not drawn) | 20.9% |

| SMILES | hERG current change (%, negative = inhibition) at 1uM |
| --- | --- |
| CCCCn1c(N)c(N(CC(C)C)C(=O)C2CCCO2)c(=O)[nH]c1=O (stereo not drawn) | 17.2% |
| COc1cc(C2c3c(oc4ccccc4c3=O)C(=O)N2c2ccc(C)cn2)ccc1O (stereo not drawn) | -0.622% |
| COc1cc(OC)c(N(C)C(=O)CCNC(=O)Cn2cnc3ccccc3c2=O)cc1Cl | -12.5% |
| Cc1onc(-c2c(F)cccc2Cl)c1C(=O)OCC(=O)NC(N)=O | 10.6% |
| CC(C)[C@H](NC(=O)c1ccccc1Cl)C(=O)OCC(=O)NC(=O)NC1CCCC1 | 3.98% |
| O=C(NC(=S)Nc1cccc(Cl)c1N1CCCCC1)c1cccs1 | 18.2% |
| O=C(CNc1cc(S(=O)(=O)N2CCCC2)ccc1OCC(F)(F)F)Nc1cccc(C(F)(F)F)c1 | 5.75% |
| O=c1cc(NS(=O)(=O)c2ccccc2)nc(SCc2ccccc2Cl)[nH]1 | 8.22% |
| Cc1cccc(C)c1NC(=O)CSc1nnnn1-c1ccc(C(=O)O)cc1 | -12.7% |
| O=C(CN1CCN(C(c2ccccc2)c2ccccc2)CC1)NC(=O)NCc1ccco1 | 3.5% |
| CCN(CC)C(=O)CSc1nc2ccccc2o1 | 13.3% |
| CCCCCCCNC(=O)C1(CC2CC(c3ccc(Cl)cc3)=NO2)CCN(C(=O)OC(C)(C)C)CC1 (stereo not drawn) | 18.9% |
| COCC(C)n1c(C)cc(C(=O)COC(=O)/C=C/c2cccc(F)c2)c1C (stereo not drawn) | -16.4% |
| COc1ccc(S(=O)(=O)N(C)c2ccc(C(=O)Nc3ccccc3C(=O)N3CCOCC3)cc2)cc1 | 4.72% |
| COc1ccc(CNC(=O)C/C(C)=N/NC(=O)COc2ccc(Br)cc2)cc1 | -7.04% |
| COC(=O)c1ccccc1S(=O)(=O)N1CCC(C(=O)OCC(=O)NCC(F)(F)F)CC1 | -0.155% |
| COc1cccc(CNC(=O)c2ccc(OC)c(S(=O)(=O)NC3CCCC3)c2)c1 | 2.45% |
| O=C(/C=C/c1cccs1)c1cc(F)ccc1OC(=O)N1CCOCC1 | -5.84% |
| O=C(NCCCn1ccnc1)Nc1ccc2c(c1)OCO2 | 18.8% |
